Viability of KB3-1 and Nalm-6 cells after 48 h of drug alone (CellTiter-Glo), 11 doses over about 4.5 log units. % of DMSO wells, lower = more cell loss; AC50 from the fitted curve, lower = more potent. No active / inactive call. Nalm-6 was screened in two runs. AC50 is listed only for well-fitted inhibitory curves. KB3-1 is a HeLa-derived carcinoma line, Nalm-6 a B-cell precursor leukaemia line.
Legend:
[1] = system: Nalm-6; assay: viability (% of DMSO control); higher = more viable cells
Method: (§1)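 Eleven-dose screen of the NCATS MIPE 3 library on cells without co-treatment; CellTiter-Glo after 48 h, as % of DMSO wells.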

[2] = system: KB3-1; assay: as above
Method: as §1

SMILES	viability ([1]; run: 1, 0.00078 µM)	viability ([1]; run: 1, 0.00234 µM)	viability ([1]; run: 1, 0.00702 µM)	viability ([1]; run: 1, 0.0211 µM)	viability ([1]; run: 1, 0.0632 µM)	viability ([1]; run: 1, 0.19 µM)	viability ([1]; run: 1, 0.569 µM)	viability ([1]; run: 1, 1.71 µM)	viability ([1]; run: 1, 5.12 µM)	viability ([1]; run: 1, 15.4 µM)	viability ([1]; run: 1, 46.1 µM)	viability ([1]; run: 2, 0.00078 µM)	viability ([1]; run: 2, 0.00234 µM)	viability ([1]; run: 2, 0.00702 µM)	viability ([1]; run: 2, 0.0211 µM)	viability ([1]; run: 2, 0.0632 µM)	viability ([1]; run: 2, 0.19 µM)	viability ([1]; run: 2, 0.569 µM)	viability ([1]; run: 2, 1.71 µM)	viability ([1]; run: 2, 5.12 µM)	viability ([1]; run: 2, 15.4 µM)	viability ([1]; run: 2, 46.1 µM)	viability ([2]; 0.00078 µM)	viability ([2]; 0.00234 µM)	viability ([2]; 0.00702 µM)	viability ([2]; 0.0211 µM)	viability ([2]; 0.0632 µM)	viability ([2]; 0.19 µM)	viability ([2]; 0.569 µM)	viability ([2]; 1.71 µM)	viability ([2]; 5.12 µM)	viability ([2]; 15.4 µM)	viability ([2]; 46.1 µM)
CCC(C)N(C)C(=O)c1cc2ccccc2c(-c2ccccc2Cl)n1 (centres undefined)	95.6%	105%	97%	103%	111%	103%	106%	100%	97.7%	95.4%	67.2%	94.7%	92.8%	97.4%	93%	98.7%	100%	98.3%	105%	96%	94.5%	67.5%	98%	93.1%	99.6%	95.4%	97.8%	94.6%	98.6%	98.2%	98.1%	95.8%	62.6%
C[C@H](NC(=O)Cc1cc(F)cc(F)c1)C(=O)N[C@@H]1C(=O)N(C)c2ccccc2-c2ccccc21	90.3%	93.3%	96.8%	95%	97.1%	105%	110%	105%	106%	102%	74.3%	95.3%	105%	96.7%	98.8%	96.8%	92.4%	94.5%	103%	101%	99.2%	83.7%	93.2%	97%	93.8%	77.9%	93%	96.3%	101%	97.4%	98.1%	99.1%	81%
C[C@H](NC(=O)Cc1cc(F)cc(F)c1)C(=O)N[C@H](C(=O)OC(C)(C)C)c1ccccc1 [GSI-9]	97.4%	105%	89%	102%	102%	112%	101%	105%	106%	98.1%	91.6%	107%	104%	97.6%	107%	101%	105%	102%	99.4%	99.9%	96.9%	94.6%	96.6%	94.5%	90.6%	94%	91%	96.2%	93.5%	95.3%	98.1%	94.1%	86.4%
O=P1(N(CCCl)CCCl)NCCCO1 (centres undefined) [Cyclophosphamide]	98.4%	103%	115%	104%	108%	115%	116%	106%	105%	106%	114%	108%	102%	110%	106%	98.3%	106%	102%	99.5%	101%	100%	102%	101%	105%	105%	106%	106%	106%	105%	100%	106%	101%	102%
CC(C)C[C@H](NC(=O)[C@@H](O)[C@H](N)Cc1ccccc1)C(=O)O [Ubenimex]	17.4%	36.5%	67.1%	66%	76.4%	87.1%	92.7%	106%	105%	110%	105%	111%	108%	109%	112%	116%	108%	109%	107%	109%	105%	108%	101%	103%	104%	108%	102%	103%	102%	92.3%	84.8%	81.6%	77.8%
Fc1ccc(Cl)cc1-c1nc(Nc2ccncc2)c2nccnc2n1 [SD-208]	103%	95.9%	95%	110%	105%	119%	120%	105%	107%	94.8%	82.3%	106%	103%	105%	108%	106%	117%	107%	113%	113%	104%	92.3%	105%	102%	106%	102%	107%	109%	115%	108%	110%	106%	105%
O=C(O)CCc1ccc(NCc2cccc(Oc3ccccc3)c2)cc1 [GW-9508]	116%	125%	124%	117%	121%	115%	118%	115%	116%	115%	92.8%	110%	106%	101%	104%	104%	108%	104%	97.8%	99%	105%	96%	106%	113%	104%	106%	106%	105%	112%	107%	102%	96.8%	94.8%
Cl.Cl.Clc1ccc(Nc2nnc(Cc3ccncc3)c3ccccc23)cc1 [Vatalanib]	97.9%	86%	100%	109%	107%	103%	103%	102%	111%	104%	49.8%	94.8%	101%	92.7%	107%	103%	95.3%	104%	95.8%	103%	98%	37.5%	99.9%	103%	105%	112%	106%	103%	106%	108%	107%	108%	76.1%
